The source of these data is paper PMC9911399, “Two distinct binding modes provide the RNA-binding protein RbFox with extraordinary sequence specificity”.

T1: RBFOX1 RRM (Homo sapiens, UniProt Q9NWB1 109-208)
T1 sequence: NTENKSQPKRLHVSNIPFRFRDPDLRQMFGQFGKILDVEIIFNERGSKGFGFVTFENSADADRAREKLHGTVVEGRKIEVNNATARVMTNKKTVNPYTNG

B1: UUUCCGC (DNA:RNA)
RNA: GGGAGACCGGAAUUCAGAUUGUCCUUUCCGCUUAAAUCCCGUCGUAGCCACCA
DNA 1: CAATCTGAATTCCGGTCTCCC
DNA 2: TGGTGGCTACGACGGGATT
B2: CUCCAUC (DNA:RNA)
RNA: B1 RNA with U25C, U27C, C29A, G30U
DNA 1: CAATCTGAATTCCGGTCTCCC
DNA 2: TGGTGGCTACGACGGGATT
B3: UUCAUGG (DNA:RNA)
RNA: B1 RNA with U27C, C28A, C29U, C31G
DNA 1: CAATCTGAATTCCGGTCTCCC
DNA 2: TGGTGGCTACGACGGGATT
B4: UGGCGGC (DNA:RNA)
RNA: B1 RNA with U26G, U27G, C29G
DNA 1: CAATCTGAATTCCGGTCTCCC
DNA 2: TGGTGGCTACGACGGGATT
B5: UCAUCAG (DNA:RNA)
RNA: B1 RNA with U26C, U27A, C28U, G30A, C31G
DNA 1: CAATCTGAATTCCGGTCTCCC
DNA 2: TGGTGGCTACGACGGGATT
B6: ACUCGAG (DNA:RNA)
RNA: B1 RNA with U25A, U26C, C29G, G30A, C31G
DNA 1: CAATCTGAATTCCGGTCTCCC
DNA 2: TGGTGGCTACGACGGGATT
B7: AAGGUGA (DNA:RNA)
RNA: B1 RNA with U25A, U26A, U27G, C28G, C29U, C31A
DNA 1: CAATCTGAATTCCGGTCTCCC
DNA 2: TGGTGGCTACGACGGGATT
B8: CCAUACU (DNA:RNA)
RNA: GGGAGACCGGAAUUCAGAUUGUCCCCAUACUUUAAAUCCCGUCGUAGCCACCA
DNA 1: CAATCTGAATTCCGGTCTCCC
DNA 2: TGGTGGCTACGACGGGATT
B9: GCCCCAA (DNA:RNA)
RNA: B1 RNA with U25G, U26C, U27C, G30A, C31A
DNA 1: CAATCTGAATTCCGGTCTCCC
DNA 2: TGGTGGCTACGACGGGATT
B10: CGCCCCA (DNA:RNA)
RNA: B8 RNA with C26G, A27C, U28C, A29C, U31A
DNA 1: CAATCTGAATTCCGGTCTCCC
DNA 2: TGGTGGCTACGACGGGATT
B11: CGCUUGA (DNA:RNA)
RNA: B8 RNA with C26G, A27C, A29U, C30G, U31A
DNA 1: CAATCTGAATTCCGGTCTCCC
DNA 2: TGGTGGCTACGACGGGATT
B12: UUAACAC (DNA:RNA)
RNA: B1 RNA with U27A, C28A, G30A
DNA 1: CAATCTGAATTCCGGTCTCCC
DNA 2: TGGTGGCTACGACGGGATT
B13: CAUACUU (DNA:RNA)
RNA: B8 RNA with C26A, A27U, U28A, A29C, C30U
DNA 1: CAATCTGAATTCCGGTCTCCC
DNA 2: TGGTGGCTACGACGGGATT
B14: UAGUAGA (DNA:RNA)
RNA: B8 RNA with C25U, C26A, A27G, C30G, U31A
DNA 1: CAATCTGAATTCCGGTCTCCC
DNA 2: TGGTGGCTACGACGGGATT
B15: AGUCCUU (DNA:RNA)
RNA: B1 RNA with U25A, U26G, G30U, C31U
DNA 1: CAATCTGAATTCCGGTCTCCC
DNA 2: TGGTGGCTACGACGGGATT
B16: CGGGGUA (DNA:RNA)
RNA: B8 RNA with C26G, A27G, U28G, A29G, C30U, U31A
DNA 1: CAATCTGAATTCCGGTCTCCC
DNA 2: TGGTGGCTACGACGGGATT
B17: GAACCCG (DNA:RNA)
RNA: B8 RNA with C25G, C26A, U28C, A29C, U31G
DNA 1: CAATCTGAATTCCGGTCTCCC
DNA 2: TGGTGGCTACGACGGGATT
B18: ACGCGCU (DNA:RNA)
RNA: B8 RNA with C25A, A27G, U28C, A29G
DNA 1: CAATCTGAATTCCGGTCTCCC
DNA 2: TGGTGGCTACGACGGGATT
B19: GUACCCC (DNA:RNA)
RNA: B1 RNA with U25G, U27A, G30C
DNA 1: CAATCTGAATTCCGGTCTCCC
DNA 2: TGGTGGCTACGACGGGATT
B20: UCGACGG (DNA:RNA)
RNA: B1 RNA with U26C, U27G, C28A, C31G
DNA 1: CAATCTGAATTCCGGTCTCCC
DNA 2: TGGTGGCTACGACGGGATT

Substitutions are numbered along the chain they refer to; changes in the protein carry UniProt numbers. The list shows a part of the results.

The assay deals with T1, RBFOX1 RRM. Nature of the assay: EMSA; HiTS-Eq, 1 nM pool, 10 min; buffer printed only for the single-RNA assays: 10 mM Tris pH 7.5, 150 mM NaCl, 3.4 mM EDTA, 0.001% NP-40, 30 C. The note with it: tags: His6 N-terminal (pET28a); label: 5' 32P. Summed up:
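Relative association constants, normalised to the cognate motif, were derived by comparing read counts of each RNA species with those of the control reaction. The RNA sequenced was the free fraction, separated by 8% native PAGE after a 10 min equilibration in 50 µL of 1 nM 5′-radiolabelled RNA (7 randomized nucleotides) with increasing concentrations of purified wild-type or mutant RbFox RRM.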
(In general: A gel shift assay detects complexes by their altered migration in electrophoresis.)
Take B1: the binding signal is 0.00981 KA relative to UGCAUGU.

Regarding B2, the binding signal was 0.00555 KA relative to UGCAUGU.

For the molecule B3, the binding signal is 0.00704 KA relative to UGCAUGU.

As to B4, the binding signal is 0.0155 KA relative to UGCAUGU.

Turning to B5, the binding signal was 0.0081 KA relative to UGCAUGU.

B6: the binding signal was 0.00945 KA relative to UGCAUGU.

For the molecule B7, the binding signal is 0.0108 KA relative to UGCAUGU.

In the case of B8, the binding signal was 0.00208 KA relative to UGCAUGU.

In the case of B9, the binding signal is 0.00702 KA relative to UGCAUGU.

Turning to B10, the binding signal was 0.00447 KA relative to UGCAUGU.

With B11, the binding signal was 0.0228 KA relative to UGCAUGU.

As for B12, the binding signal is 0.0007 KA relative to UGCAUGU.

Regarding B13, the binding signal was 0.000721 KA relative to UGCAUGU.

In the case of B14, the binding signal is 0.0116 KA relative to UGCAUGU.

In the case of B15, the binding signal was 0.00422 KA relative to UGCAUGU.

For the molecule B16, the binding signal was 0.0233 KA relative to UGCAUGU.

On to B17, for which the binding signal was 0.00427 KA relative to UGCAUGU.

As to B18, the binding signal was 0.00889 KA relative to UGCAUGU.

On to B19, for which the binding signal is 0.00327 KA relative to UGCAUGU.

For the molecule B20, the binding signal is 0.0199 KA relative to UGCAUGU.
